# The whole screen tested about 110,000 compounds, of which about 40 (0.04%) were called active. This list was built around the results that the source calls inconclusive (neither active nor inactive); the mix of calls is not that of the screen. The call rests on the fitted dose curve; in most records, active means well fitted curve in the direction sought with a large enough effect in the signal ratio (not every such curve was filed as active); inconclusive means small, poorly fitted or top-dose-only effect, or a change in a side signal; inactive means flat fitted curve, though single readings scatter; the % refers to the signal ratio. Potencies beside an inconclusive call are fits to weak or partial responses and may not hold up.
# Experiment: IkB Signaling;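 on IkBa stabilization activation: 0% = basal untreated cells and 100% = reference inhibitor full response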
# Details: ABC-DLBCL IkBa-CBG/CBR dual luciferase ratio (green luciferase fused to IkBa over red control in OCI-Ly3 lymphoma cells), 4 h; IkBa stabilization activation: at 57.1 µM (top of the series), scaled: untreated 0%, proteasome inhibitor 100% unless noted
# Outline: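 Curves were fitted separately to fusion (green), unfused (red) and ratio luminescence, then classed by r2, magnitude and activity. Cells: OCI-Ly3, 4 h compound plus doxycycline at 37C; 10 uM MG-132 defined full response.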
# Potency means the concentration at half of the fitted maximal effect.
Compound,Potency,IkBa stabilization activation
[Cl-].[Cl-].[Hg+2],"inconclusive: 0.0398 µM [rising, full curve, poor fit]",–
NC(=O)CI,–,inactive
CC(=O)OCC1=C(C(=O)[O-])N2C(=O)[C@@H](NC(=O)CCC[C@@H](N)C(=O)[O-])[C@@H]2SC1.[Zn+2],–,inactive
Cc1nc2ccccc2cc1C[N+]12CN3CN(CN(C3)C1)C2,–,"inactive: 0.248% [at 11.4 µM, scaled: untreated 0%, proteasome inhibitor 100%]"
CC(C)OC(=O)c1c(N)n(CC2CCCO2)c2nc3ccccc3nc12 (stereo not drawn),–,inactive
Cc1ccc(-n2c(/C=C/c3ccccc3)nc3ccccc3c2=O)cc1Cl,–,inconclusive: 2.55% [signal inhibitor]
O=C1CC(c2ccccc2Br)c2c(c3ccccc3oc2=O)O1 (stereo not drawn),–,inconclusive: 1.25% [signal inhibitor]
CC1CCC(C(=O)NC(C(=O)N2CCC3(CC2)OCCO3)C(C)C)CC1 (stereo not drawn),–,inactive
Oc1cc2c(cc1O)[C@H]1c3ccccc3CN[C@H]1CC2,–,inconclusive: 0.703% [signal inhibitor]
Fc1ccc(C(OCCN2CCN(C/C=C\c3ccccc3)CC2)c2ccc(F)cc2)cc1,–,inconclusive: -0.746% [signal inhibitor]
COc1cc2ccccc2c2cc([N+](=O)[O-])oc12,–,"inconclusive: 10.2% [signal inhibitor] [at 11.4 µM, scaled: untreated 0%, proteasome inhibitor 100%]"
O=Cc1ccco1,–,inactive
CN1CC[C@@]2(c3cccc(O)c3)Cc3nc4ccccc4cc3C[C@H]2C1,–,inactive
CC(=O)O[C@H]1C[C@@H](O[C@@H]2[C@H](C)O[C@H](O[C@@H]3[C@H](C)O[C@H](O[C@@H]4CC[C@@]5(C)[C@@H](CC[C@]6(C)[C@]5(C)C[C@H](O)[C@]5(C)[C@@H](C7=CC(=O)OC7)CC[C@@]56O)C4)C[C@@H]3O)C[C@@H]2O)O[C@@H](C)[C@H]1O[C@H]1O[C@@H](CO)[C@@H](O)[C@@H](O)[C@@H]1O,–,"inconclusive: -0.569% [signal inhibitor] [at 25.6 µM, scaled: untreated 0%, proteasome inhibitor 100%]"
CCSCC[C@H](N)C(=O)O,–,"inactive: 0.656% [at 11.4 µM, scaled: untreated 0%, proteasome inhibitor 100%]"
CCNc1nc(Cl)nc(NC(C)C)n1,–,inactive
C#CCN[C@@H](C)Cc1ccccc1,–,inactive
Oc1c(Br)c(Br)c(Br)c(Br)c1Br,–,inconclusive: -7.39% [signal inhibitor]
BrCC(Br)(Br)Br,–,inconclusive: 9.19% [signal activator]
O=C1Nc2cc(Cl)c(Cl)cc2N2CCNC[C@H]12,–,inconclusive: 0.457% [signal inhibitor]
O=C(Oc1ccccc1)N1CCC2(CC1)CN(C(c1ccccc1)c1ccccc1)C2,–,"inactive: 0.247% [at 11.4 µM, scaled: untreated 0%, proteasome inhibitor 100%]"

Compound,Potency,IkBa stabilization activation
CSC([N-]/N=C/c1cccc(C)n1)=[S]=[Cu].CS[C@H]([S-])[N-]/N=C/c1cccc(C)n1,"inconclusive: 1.26 µM [rising, partial curve]",–
O=C(CN1CCCC1=O)N1CCOCC1,–,inactive
N#Cc1ccccc1NC(=O)c1cccn(Cc2ccccc2)c1=O,–,inconclusive: -0.424% [signal inhibitor]
CCCCCCCCOC(=O)c1ccccc1C(=O)OCCCCCCCC,–,inactive
Clc1ccc(CO[C@@H](Cn2ccnc2)c2ccc(Cl)cc2Cl)cc1,–,inactive
Oc1ccc2c3c1O[C@@H]1[C@@H](O)CC[C@]4(O)[C@H](C2)N(CC2CCC2)CC[C@@]314,–,inactive
NCC#Cc1ccccc1,"inconclusive: 15.8 µM [rising, partial curve]",–
O=C(Cn1cc(C(=O)c2ccccc2)c2ccccc21)Nc1ccc(Br)cc1,"inconclusive: 25.1 µM [signal inhibitor, partial curve]",–
COc1ccc(-c2nc(CN3C(=O)CN=C(c4ccccc4Cl)c4cc(Cl)ccc43)c(C)o2)cc1OC,–,inconclusive: 1.52% [signal inhibitor]
CNc1ccc2oc(C[C@H]3O[C@]4(CC[C@H]3C)O[C@H]([C@H](C)C(=O)c3ccc[nH]3)[C@H](C)C[C@H]4C)nc2c1C(=O)O,–,inconclusive: -0.18% [signal inhibitor]
CC[C@@H]1CN2CC[C@@H]1C[C@H]2[C@@H](O)c1ccnc2ccc(OC)cc12,–,"inactive: -0.641% [at 11.4 µM, scaled: untreated 0%, proteasome inhibitor 100%]"
COc1cccc2c1C(=O)c1c(O)c3c(c(O)c1C2=O)C[C@](O)(/C(C)=N\O)C[C@@H]3O[C@H]1C[C@H](N)[C@@H](O)[C@H](C)O1,–,"inconclusive: -3.9% [signal inhibitor] [at 11.4 µM, scaled: untreated 0%, proteasome inhibitor 100%]"
O=C1CN=C(c2cccs2)c2c(sc3c2CCCC3)N1,–,inactive
COc1ccc(N=C(C)c2c(O)n(C)c(=O)n(C)c2=O)c(OC)c1,–,inactive
N#Cc1ccc(CN2CCCC3(CCN(C(=O)Oc4ccccc4)CC3)C2)cc1,–,"inactive: 7.16% [at 11.4 µM, scaled: untreated 0%, proteasome inhibitor 100%]"
N#CS.N=C=S.N=C=S.[Cu].[NH2-].[NH2-].[NH2-].[NH2-].c1ccc2ncccc2c1,–,"inactive: 0.733% [at 11.4 µM, scaled: untreated 0%, proteasome inhibitor 100%]"
O=c1c2ccccc2[se]n1-c1ccccc1,"inconclusive: 15.8 µM [rising, partial curve]",–
c1ccc2c(c1)Nc1ccccc1S2,–,inactive
CN1[C@@H]2CC[C@H]1CC(O[C@@H](c1ccccc1)c1ccccc1N)C2 (stereo partly drawn),–,inactive
O=c1[nH]c(=O)n(C2CCCCCC2)c(O)c1C=NC1CCN(Cc2ccccc2)CC1,–,inactive
C/C=C(\C)C(=O)O[C@@H]1C(C)=C2[C@H]([C@@H]1OC(=O)CCCCCCC)[C@@](C)(OC(C)=O)C[C@@H](OC(=O)CCC)[C@@]1(O)[C@H]2OC(=O)[C@]1(C)O,active: 3.98 µM,–

Compound,Potency,IkBa stabilization activation
CC(C)[C@@]1(NC(=O)[C@@H]2C[C@H]3c4cccc5[nH]cc(c45)C[C@@H]3N(C)C2)O[C@@]2(O)[C@H]3CCCN3C(=O)[C@@H](Cc3ccccc3)N2C1=O,–,"inactive: 1.14% [at 11.4 µM, scaled: untreated 0%, proteasome inhibitor 100%]"
CCN1C[C@@]2(C)CC[C@H](O)[C@@]34[C@@H]5C[C@H]6[C@H](O)[C@@H]5[C@](O)(C[C@@H]6OC)[C@H](C[C@@H]23)[C@H]14,–,"inactive: 0.00692% [at 11.4 µM, scaled: untreated 0%, proteasome inhibitor 100%]"
CCn1nc(-c2cccs2)nc2c(=O)n(C)c(=O)nc1-2,"inconclusive: 3.16 µM [rising, partial curve]",–
CN(C)C(=O)Oc1ccc(OC(=O)c2ccccc2)cc1,–,inactive
CCCN1CCC[C@H](c2cccc(C#N)c2)C1,–,inactive
CN1CCN(c2ccc(NC(=O)C(C)(C)C)cc2)CC1,–,inconclusive: 14.5% [signal inhibitor]
Nc1ccc(Cc2ccc(N)cc2)cc1,–,inactive
c1cnc(N2CCCC3(CCNCC3)C2)nc1,–,"inactive: 2.14% [at 11.4 µM, scaled: untreated 0%, proteasome inhibitor 100%]"
Cc1cccc(-n2c(/C=C/c3cn(C)c4ccccc34)nc3ccccc3c2=O)c1,–,inconclusive: -7.93% [signal inhibitor]
Cc1cc(NC(=O)c2cccn(Cc3cccc(Cl)c3)c2=O)no1,–,inconclusive: 0.651% [signal inhibitor]
CCCCCn1c(N)c(C(=O)NCCN2CCOCC2)c2nc3ccccc3nc21,–,inconclusive: 4.03% [signal inhibitor]
CC(C)OS(C)(=O)=O,–,inactive
O=C(COc1cccc(Cl)c1)N1CCN(CCc2ccncc2)CC1,–,inconclusive: 2.61% [signal inhibitor]
CN(C)c1ccc(N=O)cc1,"inconclusive: 3.16 µM [rising, full curve]",–
C[C@@H]1O[C@H](O[C@H]2C[C@@H](O)[C@@]3(CO)[C@H]4[C@@H](O)C[C@]5(C)[C@@H](C6=CC(=O)OC6)CC[C@]5(O)[C@H]4CC[C@]3(O)C2)[C@@H](O)[C@H](O)[C@@H]1O,–,"inconclusive: 1.55% [signal inhibitor] [at 25.6 µM, scaled: untreated 0%, proteasome inhibitor 100%]"
COC(=O)c1c(C)n(Cc2ccc3c(c2)OCO3)c2ccc(O)cc12,–,inconclusive: 2.33% [signal inhibitor]
O=C(COc1ccccc1Cl)N1CCN(CCc2ccncc2)CC1,–,inconclusive: 0.162% [signal inhibitor]
c1ccc(N2CCCC3(CCNCC3)C2)cc1,–,"inactive: 0.474% [at 11.4 µM, scaled: untreated 0%, proteasome inhibitor 100%]"
N#Cc1cc2c(nc1SCC(=O)Nc1ccc(OC(F)(F)F)cc1)C1CCN2CC1,–,inactive
O=C(CCc1nc(C2=CCN(Cc3cccc(Cl)c3)CC2)no1)Nc1ccccc1F,–,inconclusive: 2.71% [signal inhibitor]
c1ccc(N2CC3(CCNCC3)C2)nc1,–,"inactive: 0.723% [at 11.4 µM, scaled: untreated 0%, proteasome inhibitor 100%]"

# Source: PubChem BioAssay AID445 (National Center for Advancing Translational Sciences (NCATS), 2006)
